B1: anti PD-1 IL-7 WT bifunctional molecule, IgG4m isotype, (GGGGS)3 linker (other)
heavy: QIQLVQSGSELKKPGASVKVSCKASGYTFTHYAMNWVRQAPGQGLEWMGWINTNTGEPTYAQGFTGRFVFSLDTSVSTAYLQISSLKAEDTAVYYCAREREPGMDNWGQGTLVTVSSASTKGPSVFPLAPCSRSTSESTAALGCLVKDYFPEPVTVSWNSGALTSGVHTFPAVLQSSGLYSLSSVVTVPSSSLGTKTYTCNVDHKPSNTKVDKRV[… human IgG4 Fc with S228P L445P (EU numbers) …]GGGGSGGGGSGGGGSDCDIEGKDGKQYESVLMVSIDQLLDSMKEIGSNCLNNEFNFFKRHICDANKEGMFLFRAARKLRQFLKMNSTGDFDLHLLKVSEGTTILLNCTGQVKGRKPAALGEAQPTKSLEENKSLKEQKKLNDLCFLKRLLQEIKTCWNKILMGTKEH
light: DVVMTQSPLSLPVTLGQPASISCRSSQSLVHANTNTYLEWYQQRPGQSPRLLIYKVSNRFSGVPDRFSGSGSGTDFTLKISRVEAEDVGVYYCFQGTHVPNTFGQGTKLEIKRTVAAPSVFIFPPSDEQLKSGTASVVCLLNNFYPREAKVQWKVDNALQSGNSQESVTEQDSKDSTYSLSSTLTLSKADYEKHKVYACEVTHQGLSSPVTKSFNRGEC
notes: antibody-IL-7 fusion: IL-7 on the C-terminus of each heavy chain; IgG4 S228P; also called IgG4 G4S3 IL7 WT; IgG4 Fc G4S3 IL-7 WT
B2: anti PD-1 IL-7 SS2 bifunctional molecule, IgG4m isotype, (GGGGS)3 linker (other)
heavy: QIQLVQSGSELKKPGASVKVSCKASGYTFTHYAMNWVRQAPGQGLEWMGWINTNTGEPTYAQGFTGRFVFSLDTSVSTAYLQISSLKAEDTAVYYCAREREPGMDNWGQGTLVTVSSASTKGPSVFPLAPCSRSTSESTAALGCLVKDYFPEPVTVSWNSGALTSGVHTFPAVLQSSGLYSLSSVVTVPSSSLGTKTYTCNVDHKPSNTKVDKRV[… human IgG4 Fc with S228P L445P (EU numbers) …]GGGGSGGGGSGGGGSDSDIEGKDGKQYESVLMVSIDQLLDSMKEIGSNCLNNEFNFFKRHISDANKEGMFLFRAARKLRQFLKMNSTGDFDLHLLKVSEGTTILLNSTGQVKGRKPAALGEAQPTKSLEENKSLKEQKKLNDLCFLKRLLQEIKTSWNKILMGTKEH
light: DVVMTQSPLSLPVTLGQPASISCRSSQSLVHANTNTYLEWYQQRPGQSPRLLIYKVSNRFSGVPDRFSGSGSGTDFTLKISRVEAEDVGVYYCFQGTHVPNTFGQGTKLEIKRTVAAPSVFIFPPSDEQLKSGTASVVCLLNNFYPREAKVQWKVDNALQSGNSQESVTEQDSKDSTYSLSSTLTLSKADYEKHKVYACEVTHQGLSSPVTKSFNRGEC
notes: as m11 with IL-7 SS2; also called IgG4 G4S3 IL7 SS2; IgG4 Fc G4S3 Fc IL-7 SS2
B3: anti PD-1 IL-7 W142H bifunctional molecule, IgG4m isotype, (GGGGS)3 linker (other)
heavy: QIQLVQSGSELKKPGASVKVSCKASGYTFTHYAMNWVRQAPGQGLEWMGWINTNTGEPTYAQGFTGRFVFSLDTSVSTAYLQISSLKAEDTAVYYCAREREPGMDNWGQGTLVTVSSASTKGPSVFPLAPCSRSTSESTAALGCLVKDYFPEPVTVSWNSGALTSGVHTFPAVLQSSGLYSLSSVVTVPSSSLGTKTYTCNVDHKPSNTKVDKRV[… human IgG4 Fc with S228P L445P (EU numbers) …]GGGGSGGGGSGGGGSDCDIEGKDGKQYESVLMVSIDQLLDSMKEIGSNCLNNEFNFFKRHICDANKEGMFLFRAARKLRQFLKMNSTGDFDLHLLKVSEGTTILLNCTGQVKGRKPAALGEAQPTKSLEENKSLKEQKKLNDLCFLKRLLQEIKTCHNKILMGTKEH
light: DVVMTQSPLSLPVTLGQPASISCRSSQSLVHANTNTYLEWYQQRPGQSPRLLIYKVSNRFSGVPDRFSGSGSGTDFTLKISRVEAEDVGVYYCFQGTHVPNTFGQGTKLEIKRTVAAPSVFIFPPSDEQLKSGTASVVCLLNNFYPREAKVQWKVDNALQSGNSQESVTEQDSKDSTYSLSSTLTLSKADYEKHKVYACEVTHQGLSSPVTKSFNRGEC
notes: as m11 with IL-7 W142H; also called IgG4 G4S3 IL7 W142H; IgG4 Fc G4S3 IL-7 W142H

How the values were obtained:
[1] = molecular target: T1, IL-7 receptor (IL-7R: CD127/CD132) on cells (human, UniProt P16871 21-459; P31785 23-369); test: cell-based or functional assay
T1 sequence (looked up) 1: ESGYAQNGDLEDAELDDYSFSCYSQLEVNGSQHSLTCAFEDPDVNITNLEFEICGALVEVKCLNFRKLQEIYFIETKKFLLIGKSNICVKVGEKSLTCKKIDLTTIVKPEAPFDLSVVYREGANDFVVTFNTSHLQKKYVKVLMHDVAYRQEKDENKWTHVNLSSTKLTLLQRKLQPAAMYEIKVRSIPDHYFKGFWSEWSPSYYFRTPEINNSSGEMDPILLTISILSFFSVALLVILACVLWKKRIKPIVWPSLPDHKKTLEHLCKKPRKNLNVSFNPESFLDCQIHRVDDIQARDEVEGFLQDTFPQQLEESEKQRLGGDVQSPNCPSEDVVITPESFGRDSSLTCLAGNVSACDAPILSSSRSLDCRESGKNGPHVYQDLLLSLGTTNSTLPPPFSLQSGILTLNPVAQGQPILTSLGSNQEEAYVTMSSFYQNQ
T1 sequence (looked up) 2: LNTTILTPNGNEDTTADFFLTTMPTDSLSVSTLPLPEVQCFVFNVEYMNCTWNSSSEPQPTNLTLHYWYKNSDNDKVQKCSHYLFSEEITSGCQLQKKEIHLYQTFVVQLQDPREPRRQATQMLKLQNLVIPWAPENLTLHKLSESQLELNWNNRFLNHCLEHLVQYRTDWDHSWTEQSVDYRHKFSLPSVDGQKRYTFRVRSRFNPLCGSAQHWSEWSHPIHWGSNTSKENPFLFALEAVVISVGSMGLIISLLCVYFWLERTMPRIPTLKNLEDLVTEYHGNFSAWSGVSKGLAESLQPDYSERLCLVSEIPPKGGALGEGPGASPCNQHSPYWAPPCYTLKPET

[2] = molecular target: T2, CD127 (Sinobiological, 10975-H03H-50) (UniProt P16871 21-239); test: Biacore: CD127 immobilised on sensor chip, fusion at escalating doses
T2 construct: bought; immobilised on the CM5 chip in the Biacore assays; also called CD127 receptor
T2 sequence (looked up): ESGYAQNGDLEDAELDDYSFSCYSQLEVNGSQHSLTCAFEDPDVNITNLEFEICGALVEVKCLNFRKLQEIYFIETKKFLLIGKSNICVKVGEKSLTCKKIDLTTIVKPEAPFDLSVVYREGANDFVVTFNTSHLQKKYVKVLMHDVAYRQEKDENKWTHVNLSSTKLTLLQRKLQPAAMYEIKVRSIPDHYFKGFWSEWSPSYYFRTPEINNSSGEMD

[3] = molecular target: T3, CD127 recombinant protein (Histidine tagged, Sino ref 10975-H08H) (UniProt P16871 21-239); test: sandwich ELISA: PD-1 immobilised, fusion preincubated with His-tagged CD127, anti-His detection
T3 construct: bought; used in the CD127 sandwich ELISA; also called CD127 receptor; IL-7Ralpha; not shown: histidine tag
T3 sequence (looked up): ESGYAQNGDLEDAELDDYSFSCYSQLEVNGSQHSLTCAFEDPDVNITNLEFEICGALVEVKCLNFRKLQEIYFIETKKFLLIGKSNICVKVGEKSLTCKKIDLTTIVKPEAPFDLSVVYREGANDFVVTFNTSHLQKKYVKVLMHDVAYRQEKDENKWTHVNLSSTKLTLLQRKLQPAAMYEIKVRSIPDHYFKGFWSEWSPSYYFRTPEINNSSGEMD

[4] = molecular target: T2, CD127 (Sinobiological, 10975-H03H-50); test: Biacore: CD127 immobilised on CM5 chip, fusion as analyte (0.35-30 nM), two-state reaction model
[5] = molecular target: T4, CD132 receptor (Sinobiological 10555-H08B) (UniProt P31785 23-254); test: Biacore, steady-state model: CD127 immobilised, IL-7 construct injected at 30 nM, then CD132 at 31.25-500 nM (CD132 on the CD127 + fusion complex)
T4 construct: bought; analyte in the Biacore CD132 assay; also called common gamma chain
T4 sequence (looked up): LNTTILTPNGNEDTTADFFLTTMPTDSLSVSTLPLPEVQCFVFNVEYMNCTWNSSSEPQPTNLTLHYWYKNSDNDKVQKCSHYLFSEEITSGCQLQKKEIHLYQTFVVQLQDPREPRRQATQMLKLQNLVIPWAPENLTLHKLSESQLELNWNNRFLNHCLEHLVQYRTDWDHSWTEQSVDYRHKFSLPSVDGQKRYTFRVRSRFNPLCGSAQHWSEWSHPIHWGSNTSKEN

[6] = molecular target: T5, recombinant human PD-1 (rPD1; Sino Biologicals, reference 10377-H08H) (human, UniProt Q15116 in part); test: ELISA, recombinant human PD-1 immobilised, anti-human Fc-peroxidase, TMB, 450 nm
T5 construct: bought; also called hPD1; PD-1 receptor

[7] = molecular target: T6, human PD-1 and human CD127 co-expressed on cells (Jurkat, CHO or U937) (human, UniProt Q15116 25-288; P16871 21-459); test: flow cytometry, 1:1 co-culture of CHO PD-1+CD127+ and CHO PD-1-CD127+ cells, anti IgG-PE; number printed over the pair of bars
T6 construct: whole, on cells; two separate receptors on one cell, not a complex; also called PD-1+CD127+ cells; PD-1(+)CD127(+) cells

pSTAT5 EC50 in CD3 T cells of human PBMCs [1] [ng/mL]	pSTAT5 EC50 in CD3 T cells of human PBMCs (second experiment, other donor) [1] [ng/mL]	Kd [2] [nM]	EC50 [3] [mg/L]	Kd [4] [nM]	Kd2 [4] [s⁻¹]	kon [4] [M⁻¹ s⁻¹]	Kd [5] [nM]	EC50 (read off the curve) [6] [mg/L]	fold difference of the binding EC50, PD1-CD127+ cells over PD1+CD127+ cells [7] [fold]	Binder
76	0.52	0.87	0.0184	0.0414	0.000122	5.76e+06	118	–	–	B1
–	2400	–	–	7.22	0.00155	611000	–	~0.006	33	B2
861	–	–	0.136	56.8	0.00256	502000	572	–	–	B3

Reference: US20230303648A1 (OSE IMMUNOTHERAPEUTICS, published 2023)
